In all, about 310,000 compounds went through this assay and about 2,200 (0.71%) showed an effect of 50% or more. The effect is printed as a negative number. The list shows a part of the results.
What follows are compounds tested against human ether-à-go-go-related gene (hERG) potassium channel (human, UniProt Q12809) (assay: primary screen, population patch clamp on CHO cells stably expressing hERG).
Sequence of human ether-à-go-go-related gene (hERG) potassium channel (Q12809 whole entry, looked up): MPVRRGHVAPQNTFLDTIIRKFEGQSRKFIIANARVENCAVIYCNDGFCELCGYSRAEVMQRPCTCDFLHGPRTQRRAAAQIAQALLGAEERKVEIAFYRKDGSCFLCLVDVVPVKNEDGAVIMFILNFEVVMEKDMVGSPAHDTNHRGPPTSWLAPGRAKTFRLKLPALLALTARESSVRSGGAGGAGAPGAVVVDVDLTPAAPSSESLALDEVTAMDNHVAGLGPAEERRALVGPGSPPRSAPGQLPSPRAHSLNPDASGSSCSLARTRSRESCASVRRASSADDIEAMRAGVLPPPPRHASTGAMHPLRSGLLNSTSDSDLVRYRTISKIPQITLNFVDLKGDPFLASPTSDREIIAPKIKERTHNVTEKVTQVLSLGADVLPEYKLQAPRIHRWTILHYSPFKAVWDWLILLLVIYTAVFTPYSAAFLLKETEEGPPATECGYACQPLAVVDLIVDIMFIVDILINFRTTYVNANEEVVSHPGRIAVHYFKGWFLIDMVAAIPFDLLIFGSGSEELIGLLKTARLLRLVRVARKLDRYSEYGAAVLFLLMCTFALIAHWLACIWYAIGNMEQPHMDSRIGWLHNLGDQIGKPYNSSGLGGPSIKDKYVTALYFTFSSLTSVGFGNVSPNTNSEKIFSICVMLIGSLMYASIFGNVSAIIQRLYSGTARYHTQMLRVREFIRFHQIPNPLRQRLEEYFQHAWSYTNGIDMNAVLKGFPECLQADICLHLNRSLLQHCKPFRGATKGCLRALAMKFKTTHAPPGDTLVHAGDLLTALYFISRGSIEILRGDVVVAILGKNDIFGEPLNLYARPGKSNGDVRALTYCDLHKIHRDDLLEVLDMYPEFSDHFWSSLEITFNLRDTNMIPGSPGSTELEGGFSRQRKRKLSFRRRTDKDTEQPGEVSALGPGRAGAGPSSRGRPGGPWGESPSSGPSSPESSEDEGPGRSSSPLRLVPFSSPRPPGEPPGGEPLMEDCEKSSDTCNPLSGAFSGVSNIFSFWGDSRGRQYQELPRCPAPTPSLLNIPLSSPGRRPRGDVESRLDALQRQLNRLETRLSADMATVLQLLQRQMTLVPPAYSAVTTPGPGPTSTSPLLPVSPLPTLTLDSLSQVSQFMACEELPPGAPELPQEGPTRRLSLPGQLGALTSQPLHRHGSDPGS
`COc1ccc(OC)c(C2CC(=O)c3c([nH]c(C(=O)OCC4CCCO4)c3C)C2)c1` (stereo not drawn) was tested, and the “hERG current change (%, negative = inhibition) at 1uM” value was 2.66%.
With `Cc1ccc(OCCCC(=O)NNC(=O)c2ccncc2)cc1` the “hERG current change (%, negative = inhibition) at 1uM” value was 13.4%.
With `CC(CN1CCCC1)OC(=O)c1ccc(Br)cc1.Cl` (stereo not drawn) the “hERG current change (%, negative = inhibition) at 1uM” value was 2.4%.
In the case of `CSc1ccccc1C(=O)NCc1ccc(F)cc1`, the “hERG current change (%, negative = inhibition) at 1uM” value is reported as 12.2%.
With `COc1ccccc1-n1c(-c2cc(-c3ccco3)[nH]n2)n[nH]c1=S` the “hERG current change (%, negative = inhibition) at 1uM” value was 16.2%.
For `CC(OC(=O)c1ccc2c(=O)n3c(nc2c1)CCCCC3)C(=O)Nc1ccc(F)cc1Cl` (stereo not drawn), the “hERG current change (%, negative = inhibition) at 1uM” value was 14.5%.
For `COc1ccc(OC)c(NC(=O)c2oc3c(c2C)C(O)CC(C)(C)C3)c1` (stereo not drawn), the “hERG current change (%, negative = inhibition) at 1uM” value was 10.9%.
With `CSc1nsc(SC)c1NC(=O)Nc1ccccc1C` the “hERG current change (%, negative = inhibition) at 1uM” value was 11.2%.
With `Cc1cccc2c(=O)cc(C)n(CC(=O)N3CCOCC3)c12` the “hERG current change (%, negative = inhibition) at 1uM” value was 9.29%.
With `O=C1NC(=O)C(Cc2c[nH]c3ccccc23)N1` (stereo not drawn) the “hERG current change (%, negative = inhibition) at 1uM” value was 12.4%.
In the case of `NC(=O)CC(NC(=O)c1ccccc1)c1ccc(NCCc2ccc(Cl)cc2)c([N+](=O)[O-])c1` (stereo not drawn), the “hERG current change (%, negative = inhibition) at 1uM” value is reported as 4.8%.
For `COC(=O)c1sc(S(=O)(=O)NCc2cccs2)c(C(=O)OC)c1C`, the “hERG current change (%, negative = inhibition) at 1uM” value was 7.05%.
`COc1ccc(C(CNC(=O)c2cc(SC)ccc2Cl)N(C)C)cc1` (stereo not drawn) was tested, and the “hERG current change (%, negative = inhibition) at 1uM” value was 5.64%.
`Cc1cc(Br)ccc1NC(=O)CCSc1ccccc1` was tested, and the “hERG current change (%, negative = inhibition) at 1uM” value was 16.5%.
With `COc1ccc(NC(=O)c2ccco2)cc1NC(=O)c1c(OC)cccc1OC` the “hERG current change (%, negative = inhibition) at 1uM” value was 9.39%.
`O=C(Cc1ccc(Cl)cc1)Nc1ccc2c(c1)C(=O)NC2=O` was tested, and the “hERG current change (%, negative = inhibition) at 1uM” value was 5.63%.
In the case of `O=C(c1ccccc1)N(Cc1ccc(F)cc1)Cc1nc2ccccc2c(=O)[nH]1`, the “hERG current change (%, negative = inhibition) at 1uM” value is reported as -1.53%.
With `O=C(Cc1cccc2ccccc12)NNC(=O)Nc1cccc(Cl)c1` the “hERG current change (%, negative = inhibition) at 1uM” value was 11.4%.
With `Cc1ccc(S(=O)(=O)C(CNC(=O)C(C)C)c2cccs2)cc1` (stereo not drawn) the “hERG current change (%, negative = inhibition) at 1uM” value was 16.6%.
For `O=C(COC(=O)c1cc[n+]([O-])cc1)NCc1ccccc1Cl`, the “hERG current change (%, negative = inhibition) at 1uM” value was -6.16%.
`CCCCn1c(NCc2ccncc2)nc2ccccc21` was tested, and the “hERG current change (%, negative = inhibition) at 1uM” value was -10.1%.
In the case of `O=C(NCC1CCCO1)/C(=C\c1ccco1)NC(=O)c1ccccc1` (stereo not drawn), the “hERG current change (%, negative = inhibition) at 1uM” value is reported as 14.9%.
With `O=c1ccc(-c2ccccc2)nn1Cc1ccc(F)cc1Cl` the “hERG current change (%, negative = inhibition) at 1uM” value was 18.8%.
`CC(C)Cn1c(N)c(C(=O)COC(=O)COc2cccc(C(F)(F)F)c2)c(=O)n(C)c1=O` was tested, and the “hERG current change (%, negative = inhibition) at 1uM” value was -16.5%.
With `C=CCN(C(=O)CCC(=O)Nc1cc(C)on1)C(C(=O)NC1CCCC1)c1ccc(OC)cc1OC` (stereo not drawn) the “hERG current change (%, negative = inhibition) at 1uM” value was 8.9%.
With `CC(C(=O)N1CCc2ccccc21)N1CCc2ccccc2C1` (stereo not drawn) the “hERG current change (%, negative = inhibition) at 1uM” value was -4.76%.
In the case of `CCS(=O)(=O)c1ccc2c(c1)NC(=O)C(CCCl)O2` (stereo not drawn), the “hERG current change (%, negative = inhibition) at 1uM” value is reported as -0.698%.
`CN1CCN(c2ccc([N+](=O)[O-])c(N3CCCCC3)c2)CC1` was tested, and the “hERG current change (%, negative = inhibition) at 1uM” value was 8.79%.
In the case of `Cc1ccc(S(=O)(=O)N(C)C)cc1NC(=O)CSc1nc2ccccc2[nH]1`, the “hERG current change (%, negative = inhibition) at 1uM” value is reported as -8.95%.
For `CS(=O)(=O)N(CC(=O)NCCc1ccccc1)c1cccc([N+](=O)[O-])c1`, the “hERG current change (%, negative = inhibition) at 1uM” value was 3.83%.
For `COC/C=C/C1=CC2=CC(=O)C(C)(OC(=O)c3cnc4ccccc4n3)C(=O)C2=CN1CCc1ccccn1` (stereo not drawn), the “hERG current change (%, negative = inhibition) at 1uM” value was 14.7%.
For `O=C(Nc1ccon1)C12CC3CC(C1)CC(n1cnc([N+](=O)[O-])n1)(C3)C2`, the “hERG current change (%, negative = inhibition) at 1uM” value was -4.03%.
With `C[C@H](NC(=O)C1CC(=O)N(c2ccc3c(c2)OCCO3)C1)C(=O)NC1CCCC1` (stereo partly drawn) the “hERG current change (%, negative = inhibition) at 1uM” value was 9.62%.
`COc1ccc(CNC(=O)c2onc(C)c2Cl)cc1` was tested, and the “hERG current change (%, negative = inhibition) at 1uM” value was 7.13%.
With `O=c1[nH]c(-[n+]2ccccc2)c(/C=N/NC([S-])=Nc2ccccc2)s1` the “hERG current change (%, negative = inhibition) at 1uM” value was 25.5%.
In the case of `COc1ccc(OC)c(C2CC(=O)Nc3n[nH]c(-c4ccccc4)c32)c1` (stereo not drawn), the “hERG current change (%, negative = inhibition) at 1uM” value is reported as 6.67%.
`COc1cccc(-c2noc(CCCC(=O)NC3CCCC3)n2)c1` was tested, and the “hERG current change (%, negative = inhibition) at 1uM” value was 11.6%.
For `O=C(CN1CCN(Cc2ccccc2)CC1)NCCNc1ccc([N+](=O)[O-])cn1`, the “hERG current change (%, negative = inhibition) at 1uM” value was -5.73%.
`COc1cc(CN2CCNC(=O)C2CC(=O)NCCc2ncccc2C)cc(OC)c1` (stereo not drawn) was tested, and the “hERG current change (%, negative = inhibition) at 1uM” value was 15%.
In the case of `O=C(NCC1(N2CCOCC2)CCCCC1)c1ccc(Cl)c(S(=O)(=O)NCc2ccco2)c1`, the “hERG current change (%, negative = inhibition) at 1uM” value is reported as -23.1%.
For `Cl.O=C(CN1CCC(O)CC1)N1c2ccccc2C=Cc2ccccc21`, the “hERG current change (%, negative = inhibition) at 1uM” value was 0.486%.
In the case of `CN1CCN(CC(=O)N(C)c2nc(-c3ccccc3)cs2)CC1`, the “hERG current change (%, negative = inhibition) at 1uM” value is reported as 2.44%.
With `CC(=O)c1ccc(N2CCN(C(=O)/C=C/c3ccc(S(=O)(=O)NCc4ccco4)cc3)CC2)cc1` the “hERG current change (%, negative = inhibition) at 1uM” value was -10.1%.
In the case of `COc1ccc(/C=N/Nc2nncc3ccccc23)c(OC)c1`, the “hERG current change (%, negative = inhibition) at 1uM” value is reported as 16.2%.
In the case of `CCOC(=O)C1(Cc2ccccc2C(F)(F)F)CCN(C(=O)c2cc(C)n(C)n2)CC1`, the “hERG current change (%, negative = inhibition) at 1uM” value is reported as 1.96%.
`CCOc1cc(C(=O)N/N=C\c2cn(CC)nc2C)cc(OCC)c1OCC` was tested, and the “hERG current change (%, negative = inhibition) at 1uM” value was 12.2%.
For `Cc1cc(C)c2nc(-c3ccccn3)cc(C(=O)Nc3ccc(S(=O)(=O)Nc4onc(C)c4C)cc3)c2c1`, the “hERG current change (%, negative = inhibition) at 1uM” value was 8.17%.
In the case of `CCOc1cc2c(cc1OCC)-n1cccc1C(c1cccc(F)c1)NC2.Cl` (stereo not drawn), the “hERG current change (%, negative = inhibition) at 1uM” value is reported as 8.25%.
For `Cc1ccc(S(=O)(=O)N2CCN(C(=O)CCC(=O)NC3CCCc4ccccc43)CC2)cc1` (stereo not drawn), the “hERG current change (%, negative = inhibition) at 1uM” value was 12.5%.
With `O=C(O)CC(NC(=O)CCC1CCCCC1)c1cc([N+](=O)[O-])ccc1Cl` (stereo not drawn) the “hERG current change (%, negative = inhibition) at 1uM” value was 12.9%.
With `O=C(Nc1ccc2c(c1)OCO2)C1CCN(S(=O)(=O)c2cccc3cccnc23)CC1` the “hERG current change (%, negative = inhibition) at 1uM” value was 14.2%.
For `Cc1ccc(C)c(S(=O)(=O)N2C(=S)NC(=O)C2C(C)C)c1` (stereo not drawn), the “hERG current change (%, negative = inhibition) at 1uM” value was 6.07%.
`COCCCNC(=O)C1CCC(CNS(=O)(=O)c2ccc3c(c2)CC(C)N3C(=O)C2CC2)CC1` (stereo not drawn) was tested, and the “hERG current change (%, negative = inhibition) at 1uM” value was 1.05%.
In the case of `CN(c1ccccc1)C(c1ccc(F)cc1)c1nnnn1CC1CCCO1.Cl` (stereo not drawn), the “hERG current change (%, negative = inhibition) at 1uM” value is reported as 2.88%.

Source: article PMC4336329 (PLoS ONE, 2015)
